Measurements as given in ChEMBL document CHEMBL1201862, “PubChem BioAssay data set” (2004).
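In this assay, cells in 96-well plates receive the compound at five concentrations for 48 hours. Endpoints are linearly interpolated between the surrounding concentrations. GI50 is the concentration that inhibits growth by half.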 Active and inactive are the calls of the source. Rule as the data show it: active = GI50 up to about 1.1 µM and inactive = higher.

tested on: NCI-H322M; assay: growth of human tumour cells (NCI), 48 h

Structure (SMILES)	GI50
CCOC(=O)NC(=O)c1cn(C2OC(COC(=O)CCCCCCCCC(=O)OCC3OC(n4cc(C(=O)NC(=O)OCC)c(=O)[nH]c4=O)C(O)C3O)C(O)C2O)c(=O)[nH]c1=O (stereo unspecified)	inactive: > 100 µM
Cc1cccc(NC(=S)Nc2ccc([N+](=O)[O-])cc2)n1	inactive: > 100 µM
COC(=O)C1=C(c2ccc(Cl)cc2)C(O)NC(NN)=N1 (stereo unspecified)	inactive: > 100 µM
CC(C)(C)[Si](C)(C)Oc1cc(CO)cc2c1cc(=N)o[n+]2[O-]	inactive: > 10 µM
O=C(NC(=O)c1cn(CCN(CCO)C(=O)NCCCCCCNC(=O)N(CCO)CCn2cc(C(=O)NC(=O)OCc3ccccc3)c(=O)[nH]c2=O)c(=O)[nH]c1=O)OCc1ccccc1	inactive: > 100 µM
COC(=O)CCC(C)[C@H]1CCC2C3C(C[C@H](OC(C)=O)[C@@]21C)[C@@]1(C)CCC2(C[C@H]1C[C@H]3OC(C)=O)OOC1(CCC(C(C)(C)C)CC1)OO2 (stereo partly specified)	inactive: 56 µM
CSc1nc(NC(C)C)c2c(n1)Sc1nc3ccccc3n1C2O (stereo unspecified)	inactive: 9.68 µM
O=C1c2ccccc2C(=O)c2oc(Br)cc21	inactive: 1.59 µM
COc1ccc(/[N+]([O-])=C/c2ccc(OC(=S)S)c(OC)c2)cc1	inactive: 32.5 µM
COc1ccc(NC(=O)C2C(=O)N(c3ccc(OC)cc3)C(=O)/C2=N/O)cc1 (stereo unspecified)	inactive: 25.8 µM
CC(C)CC(NC(=O)OC(C)(C)C)C(=O)Nc1ccc(Nc2nc(F)nc(-c3c4ccccc4c4n3CCS4)n2)cc1 (stereo unspecified)	inactive: 25.9 µM
COc1ccc(C(=O)c2c(-c3ccccc3NC(=O)C(F)(F)F)[nH]c3ccccc23)cc1	inactive: 5.92 µM
COc1cccc2c1C(=N)c1c(O)c3c(c(O)c1C2=O)C[C@@](O)(C(C)=O)C[C@@H]3OC1CC(N)C(O)C(C)O1 (stereo partly specified)	inactive: 3.78 µM
O=C1c2ccccc2C(=O)c2c(O)ccc(O)c21 [QUINIZARIN]	inactive: > 100 µM
NS(=O)(=O)c1ccc(NC(NC(=O)C(C(F)(F)F)C(F)(F)F)(C(F)(F)F)C(F)(F)F)cc1	inactive: > 100 µM
Nc1ccc2c(O)cc(O)nc2n1	inactive: > 100 µM
CNC1=CC(=O)C2=C(C1=O)[C@H]1CC[C@]3(C)C(=O)CC[C@H]3[C@@H]1CC2	inactive: 15 µM
Cc1ccc(S(=O)(=O)N2CC2CCCCC=O)cc1 (stereo unspecified)	inactive: > 100 µM
COCCOCCOCCC(=O)NC1CC2CCC1(C)C2(C)C (stereo unspecified)	inactive: > 100 µM
CC(=O)n1c2ccc(Br)cc2c2nc3ccccc3nc21	inactive: > 100 µM
CC(C)N1CN(C(C(=O)N[C@@H]2C(=O)N3C2SC(C)(C)C3C(=O)O)c2ccccc2)CSC1=S (stereo partly specified)	inactive: > 100 µM
O=[N+]([O-])c1cccc(C(O)/C(=N/Nc2ccccc2)C2Nc3ccc([N+](=O)[O-])cc3N=C2O)c1 (stereo unspecified)	inactive: 59.2 µM

Structure (SMILES)	GI50
COc1ccc(C[C@@H]2OC3(C=CC(=O)C=C3)O[C@H]2Cc2ccc(OC)cc2)cc1	inactive: 13.2 µM
Nc1nc2sc3ccccc3c(=O)n2n1	inactive: > 100 µM
c1ccc(-c2nnc(-c3ccccn3)c3c2C[C@@H]2C[C@@H]4Cc5c(-c6ccccn6)nnc(-c6ccccn6)c5[C@@H]4[C@H]32)nc1	inactive: 59 µM
Cc1c(C)c(S(=O)(=O)N(CCCCCON)OCCCN)c(C)c2c1OC(C)(C)CC2	inactive: 13.5 µM
COC(=O)C1=NN2c3ccccc3C(=O)OCCC2(C)C1 (stereo unspecified)	inactive: > 100 µM
Cn1c(=O)c2c(ncn2CCNC(CO)C(O)c2ccc([N+](=O)[O-])cc2)n(C)c1=O (stereo unspecified)	inactive: > 100 µM
Cc1ccc(-c2c(C#N)c(-c3ccccc3)n(NS(=O)(=O)c3ccc(C)cc3)c(=O)c2C#N)cc1	inactive: > 100 µM
CN(C(=O)c1ccc(Cl)cc1)C(=S)N1CCN(c2ccccn2)CC1	inactive: > 100 µM
CC12C=CC(C)(C3C(=O)C4C(C(=O)C31)C1(C)C=CC4(C)[S+]1[O-])[S+]2[O-] (stereo unspecified)	inactive: > 100 µM
C=CCNC1=C2C[C@@H](C)C[C@@H](OC)[C@H](OC(=O)CN)[C@H](C)/C=C(\C)[C@@H](OC(N)=O)[C@H](OC)/C=C\C=C(/C)C(=O)NC(=CC1=O)C2=O	inactive: 2.6 µM
O=C(/C=C/c1ccc(Cl)c(Cl)c1)C1CCC(Cl)CC1 (stereo unspecified)	inactive: 33.5 µM
O=c1oc2cc(O)ccc2cc1-c1nc2ccccc2s1	inactive: 25.2 µM
NC(=O)C(=CN1CC(=O)NC1=S)C(N)=O	inactive: > 100 µM
Cc1cc2ncn(-c3nc4ccccc4nc3C(C#N)S(C)(=O)=O)c2cc1C (stereo unspecified)	inactive: > 100 µM
NC(Cc1ccc(S(=O)(=O)O)cc1)C(=O)NC(Cc1ccc(S(=O)(=O)O)cc1)C(=O)NC(Cc1ccc(S(=O)(=O)O)cc1)C(=O)O (stereo unspecified)	inactive: > 100 µM
CN=C(n1ccnc1)n1ccnc1	inactive: > 100 µM
C[C@@]12C[C@@H](c3ccccc3O1)N1Cc3ccccc3CSC1=N2	inactive: > 100 µM
O=C(N/C(=C\c1ccccc1[N+](=O)[O-])c1nc2ccccc2[nH]1)c1ccccc1	inactive: 93.8 µM
Cc1ccc(C)c(NC(=O)/C(=N\N)C(c2cnc3ccc([N+](=O)[O-])cc3n2)[N+](=O)[O-])c1 (stereo unspecified)	inactive: 69 µM
OC1OCC(COc2cc(Cl)c(Cl)cc2Cl)OC1O (stereo unspecified)	inactive: 65.5 µM
CC(=O)OC(Cn1cncn1)(Cn1cncn1)c1ccc(Cl)cc1Cl	inactive: > 100 µM
C=CCNC(=O)N(CCC)CCCC(NC(C)=O)C(=O)NCc1ccccc1 (stereo unspecified)	inactive: > 100 µM

Structure (SMILES)	GI50
CNC(=O)OCc1c(COC(=O)NC)c(-c2ccc(-c3ccccc3)cc2)n(C)c1C	inactive: 1.51 µM
COC(=O)CN(CC(=O)NCCNC(=O)OC(C)(C)C)C1CCCCC1N(CC(=O)OC)CC(=O)OC (stereo unspecified)	inactive: > 100 µM
CCOC(=O)Nc1ccc2c(c1)c(CCCCCCc1nc3ccccc3c3ccc(NC(=O)OCC)cc13)nc1ccccc12	inactive: 12.8 µM
C=CC(=O)N1C/C(=C\c2ccccc2)C(=O)/C(=C/c2ccccc2)C1	inactive: 3.23 µM
O=C(O)C1CCCN1Cc1cc2ccccc2c2ccccc12 (stereo unspecified)	inactive: > 100 µM
CCCCCCCCCCCCCCCCCC(=O)Nc1ccn(C2CCC(COP(=O)(O)O)O2)c(=O)n1 (stereo unspecified)	inactive: > 100 µM
C=C(CCOC)CCC1CCCCC(CN(C)C)C1=O (stereo unspecified)	inactive: > 100 µM
CS[C@]12[C@@H]3C(=O)N(C)C(=O)[C@@H]3[C@](C)(C(=O)N1C)C(=O)N2c1ccccc1	inactive: > 100 µM
CC1(C)COC(c2cccc(C3=NC(C)(C)CO3)c2Br)=N1	inactive: > 100 µM
CNC(=O)N(CCC#N)CCCN(C(=O)NC)c1ccccc1	inactive: > 100 µM
COc1cc(/C=C/C(=N\NC(=S)NN)c2sc(NNC(C)=O)nc2C)ccc1O	inactive: > 100 µM
C[N+]12c3ccccc3O[B-]1(c1ccccc1)Oc1ccccc12 (stereo unspecified)	inactive: 45.1 µM
CCOC1(OCC)N=C(N)C2(C#N)C3(C(=O)N(C(C)C)N=C3C)C12C#N (stereo unspecified)	inactive: > 100 µM
CCCCCCC(=O)CC(=O)C(=O)Nc1ccccc1C	inactive: > 78.5 µM
O=C(Nc1ccc([N+](=O)[O-])cc1)C1C(=O)C(=O)N(c2ccc([N+](=O)[O-])cc2)C1=O (stereo unspecified)	inactive: > 100 µM
c1ccc(SC(Sc2ccccc2)c2ccc3c(c2)OCO3)cc1	inactive: > 100 µM
O=C1N[C@H]2c3c(Cl)sc(Cl)c3C(=O)[C@H]2O1	inactive: 18.5 µM
CC(C)(C)C(=O)/C=C/c1ccc(Oc2ccccc2)cc1	inactive: 19.2 µM
CC(C)=CCC/C(C)=C/CC/C(C)=C/Cc1c(O)c2ccccc2oc1=O	inactive: > 100 µM
c1ccc(CCNCc2ccco2)nc1	inactive: > 100 µM
COc1cc(=O)oc(/C=C/C=C/C=C/C(C)=C\C2(C)OC(C)C(C)(O)C2O)c1C (stereo unspecified)	inactive: > 100 µM
COc1ccc2c(c1)c1nn(CCN3CCCCC3)c3ccc4c(=O)n(CCN(C)C)c(=O)n2c4c13	active: < 0.01 µM

Structure (SMILES)	GI50
COC(=O)C1=C(O)C(O)=C(C(=O)OC)CC1	inactive: > 100 µM
C=C1CC(COc2ccc3c(C)c(C)c(=O)oc3c2C)(c2ccccc2)OC1=O (stereo unspecified)	inactive: 11.7 µM
CC1=NN(c2ccc(C)cc2)C2(C1)SCC(=O)N2c1nc2ccccc2s1 (stereo unspecified)	inactive: 22.1 µM
S=P1(Sc2ccccc2)Oc2ccc3ccccc3c2-c2c(ccc3ccccc23)O1	inactive: > 53.7 µM
N#CC1=C(N)OC2=C(CSc3ccccc32)C1c1ccc(Br)cc1 (stereo unspecified)	inactive: 17.3 µM
Cc1cc(C)c(/N=N/c2c(O)c(S(=O)(=O)O)cc3cc(S(=O)(=O)O)ccc23)cc1C	inactive: > 100 µM
Cc1n[nH]c(=O)n1/N=C/c1ccncc1	inactive: > 100 µM
Oc1[nH]c(Nc2cccc(Cl)c2)nc2ncnc1-2	inactive: 84.5 µM
COc1cc2c3cc1Oc1c(O)c(OC)cc4c1C(Cc1ccc(O)c(c1)Oc1ccc(cc1)CC3N(C)CC2)N(C)CC4 (stereo unspecified)	inactive: 17.2 µM
CC1CC[C@]2(C(=O)O)CCC3(C)C(=CCC4[C@@]5(C)CC[C@H](OS(=O)(=O)c6ccccc6)C(C)(C)C5CC[C@]43C)[C@@H]2[C@H]1C (stereo partly specified)	inactive: 84.7 µM
CCCCCCCCCCCCCCCCNC(=O)/C(O)=C/C(=O)c1ccc(C)cc1	inactive: > 10 µM
CC(=O)Nn1c(=S)[nH]c2ccccc21	inactive: > 100 µM
COC(=O)CC1C(C)(C)C(=O)C2CC3=C4CC(=O)OC(c5ccoc5)C4(C)CCC3C1(C)C2=O (stereo unspecified)	inactive: > 100 µM
CNC(=S)NC1CCCCC1NC(=S)NC (stereo unspecified)	inactive: > 100 µM
O=C1C(NCCc2cc(Cl)c(O)c(Cl)c2)=CC(=O)c2[nH]cnc21	inactive: 44.9 µM
CCOC(=O)C1=C(Nc2ccc(Br)cc2)OCC1=O	inactive: > 100 µM
O=c1c2cc(Cl)ccc2[nH]c2cc(O)cc(O)c12	inactive: > 10 µM
COc1c(OC2OC(CO)C(O)C(O)C2O)cc2c(c1OC)-c1ccc(OC)c(=O)cc1[C@@H](NC(C)=O)CC2 (stereo partly specified)	inactive: > 100 µM
CC1CCC(=O)C(C(O)CC2CC(=O)N(c3ccccc3)C(=O)C2)C1 (stereo unspecified)	inactive: > 100 µM
COc1ccc(/C=C/C(=O)c2nc3ccccc3[nH]2)cc1	inactive: 25.6 µM
